Experimental findings from PubChem BioAssay AID1508623 (National Center for Advancing Translational Sciences (NCATS), 2021) are described below.

The whole screen tested about 48,000 compounds, of which about 450 (0.94%) were called active. Roughly 19% stayed inconclusive and do not appear here. The call rests on the fitted dose curve; in most records, active means well fitted inhibition curve with a large enough effect; inconclusive means small, poorly fitted or top-dose-only effect; inactive means no such curve, though single readings can be large or run the other way. The list shows a part of the results.

The nature of the experiment: Primary qHTS for Identification of Small Molecule Inhibitors of Huntingtin Promoter Activity. Further: nearly all actives have a fitted effect of over 50% in size. The note with it: HEK293 HTT promoter firefly luciferase reporter (activity 0% = vehicle and -100% = no light), 24 h; activity change, negative = inhibition: at the top concentration. The text has this: Assay Provider: Russell L. Margolis M.D.
Department Neurology, Johns Hopkins University School of Medicine, Baltimore, MD
Huntington's Disease (HD) is a neurodegenerative disorder caused by a CAG repeat expansion in exon 1 of huntingtin (HTT). While there are currently no disease-modifying treatments for HD, recent efforts have focused on development of nucleotide-based therapeutics to lower HTT expression. As an alternative to siRNA or oligonucleotide methods, we hypothesized that suppression of HTT expression might be accomplished by small molecules that either (1) directly decrease HTT expression by suppressing HTT promoter activity or (2) indirectly decrease HTT expression by increasing the promoter activity of HTT-AS, the gene antisense to HTT that appears to inhibit expression of HTT.
We developed and employed a high throughput screen for modifiers of HTT and HTT-AS promoter activity using luminescent reporter HEK293 cells; of the 52,041 compounds tested, we identified 898 replicable hits. We used a rigorous stepwise approach to assess compound toxicity and the capacity of the compounds to specifically lower huntingtin protein in 5 different cell lines, including HEK293 cells, HD lymphoblastoid cells, mouse primary neurons, HD iPSCs differentiated into cortical-like neurons, and HD hESCs. We found no compounds which were able to lower huntingtin without lowering cell viability in all assays, though the potential efficacy of a few compounds at non-toxic doses could not be excluded.
SEQUENCE No. (1, 2, 3, etc.); […] (e.g., Cells, Incubation, Reagent, etc.); VALUE and DESCRIPTION.
1; Reagent; 4 uL; 2,500 Hek293 luciferase reporter cells per wells
3; Compound; 23 nL; Control inhibitor / compound library
5; Reagent; 2.5 uL; Firefly Luc reagent; Dual-Glo Luciferase Reporter Assay System (Promega)
6; Time; 10 min; room temperature incubation
7; Detection; Luminescence; FLuc
NOTES (numbers refer to sequence above)
1; High-throughput screening, measuring luminescence from a Hek293 luciferase reporter, was performed in 1,536 well white-walled tissue-culture treated plates. 2,500 cells were plated in 4 µL of Opti-MEM per well using a Multidrop Combi Reagent Dispenser (ThermoFisher).
2; Assay plates were cultured for 24 hours.
3; Control inhibitor (PTC124; final concentration of 50 uM) and compound library (at final concentrations of 460 nM - 57.5 uM) were added to the assay plate using the Kalypsis Pintool Robotic System equipped with 1536 pinheads.
4; Cells were then incubated for 24 hours at 37 degrees C prior to luminescence measurements.
5; In all cases, luminescence was measured using the Dual-Glo Luciferase Reporter Assay System (Promega) following the manufacturer's instructions.
6; Room temperature incubation.
7; Luminescence signal was obtained using the PerkinElmer ViewLux plate reader. Results were normalized to vehicle control (0% activity) and zero RLU (-100% activity).
Regarding `COc1ccc(Cl)cc1NC(=O)c1sc2nc3c(cc2c1N)N1CCC3CC1`, the “activity change, negative = inhibition” value was inactive: -4.45%.

As for `CCC(C(=O)Nc1ccccc1F)N1C(=O)CN=C(c2ccccc2)c2ccccc21` (configuration not stated), the “activity change, negative = inhibition” value is inactive: -11%.

In the case of `CC[C@]1(O)CC[C@H]2[C@@H]3CCC4=CCCC[C@@H]4[C@H]3CC[C@@]21C`, the “activity change, negative = inhibition” value is inactive: -7.44%.

In the case of `Clc1ccccc1N1CCNCC1`, the “activity change, negative = inhibition” value was inactive: 5.36%.

On to `c1ccc2c(c1)Nc1ccccc1S2`, for which the activity change, negative = inhibition entry is “inactive”.

In the case of `C[C@]12CC[C@H]3[C@@H](CC=C4C[C@@H](O)CC[C@@]43C)[C@@H]1CC[C@@H]2O`, the “activity change, negative = inhibition” value is inactive: -5.32%.

`CC(C)c1ccc(NC(=O)CN2C(=O)CN=C(c3ccccc3)c3ccccc32)cc1`: the “activity change, negative = inhibition” value is inactive: -15.3%.

Turning to `CC(C)(C)C(O)C(Oc1ccc(Cl)cc1)n1cncn1` (configuration not stated), the “activity change, negative = inhibition” value is inactive: -13.9% [at 116 µM].

For `COc1ccc(OCC(=O)N2CCN(CCc3ccccn3)CC2)cc1`, the activity change, negative = inhibition was inactive: 47.6% [at 11.5 µM].

Consider `COc1cc(CC(C)N)c(OC)cc1Br` (configuration not stated), for which the “activity change, negative = inhibition” value is inactive: -3.71% [at 116 µM].

With `NCC(O)c1ccc(O)cc1` (configuration not stated), the “activity change, negative = inhibition” value was inactive: -1.1%.

Turning to `O=C(Cn1cc(C(=O)c2ccccc2)c2ccccc21)Nc1ccc(Br)cc1`, the “activity change, negative = inhibition” value is inactive: -22.1%.

As to `Nc1ccc(Cl)cc1C(=O)c1ccccc1F`, the “activity change, negative = inhibition” value was inactive: -16.1%.

Consider `CN(C)CCc1c[nH]c2cccc(O)c12`, for which the “activity change, negative = inhibition” value is inactive: -0.517% [at 116 µM].

As to `Cc1cccc(CN2C(=O)CN=C(c3ccccc3)c3cc(Cl)ccc32)c1`, the “activity change, negative = inhibition” value was inactive: -30%.

In the case of `CCCc1ccc(OCC(=O)Nc2ccc(Cl)cc2C(=O)c2ccccc2)cc1`, the “activity change, negative = inhibition” value is inactive: 2.89%.

As to `Cc1cccc(-n2c(/C=C/c3cn(C)c4ccccc34)nc3ccccc3c2=O)c1`, the “activity change, negative = inhibition” value was inactive: -18%.

For the compound `Cc1cc(NC(=O)c2cccn(Cc3cccc(Cl)c3)c2=O)no1`, the “activity change, negative = inhibition” value was inactive: -8.58%.

`O=C(O)CCCOc1ccc(Cl)cc1Cl`: the “activity change, negative = inhibition” value was inactive: 17.3% [at 116 µM].

On to `C[C@]12CCC(=O)C(O)=C1CC[C@@H]1[C@@H]2CC[C@]2(C)C(=O)CC[C@@H]12`, for which the “activity change, negative = inhibition” value is inactive: 0.0668%.

Turning to `CC[C@H]1C[C@@H]2C[C@H]3c4[nH]c5ccc(OC)cc5c4CCN(C2)[C@@H]13`, the “activity change, negative = inhibition” value is inactive: -18% [at 116 µM].

On to `O=C(Nc1ccon1)c1cccn(Cc2ccccc2)c1=O`, for which the “activity change, negative = inhibition” value is inactive: -7.05%.

On to `OC(O)C(Cl)(Cl)Cl`, for which the “activity change, negative = inhibition” value is inactive: 12.6%.

Regarding `CCOP(=S)(OCC)Oc1cc(C)nc(C(C)C)n1`, the “activity change, negative = inhibition” value was inactive: 10.6%.

With `CNC(C)(C)Cc1ccccc1`, the “activity change, negative = inhibition” value was inactive: 8.01%.

With `c1ccc(C2CC2)c(OCC2=NCCN2)c1`, the “activity change, negative = inhibition” value is inactive: 6.78%.

In the case of `C[C@]12CCC(=O)C=C1CC[C@@H]1[C@@H]2CC[C@@]2(C)[C@H]1CC[C@]2(C)O`, the “activity change, negative = inhibition” value is inactive: -20.5%.

For the compound `CCS(=O)(=O)C(C)(C)S(=O)(=O)CC`, the “activity change, negative = inhibition” value was inactive: -2.7%.

In the case of `O=c1[nH]c2cc(Cl)ccc2n1C1CCNCC1`, the “activity change, negative = inhibition” value was inactive: 12.6%.

Regarding `COc1ccc(OCC(=O)N2CCN(Cc3cc(=O)n4nc(-c5ccccc5C)sc4n3)CC2)cc1`, the “activity change, negative = inhibition” value is inactive: -38.2%.

`CC(=O)NS(=O)(=O)c1ccc(NC(=O)c2cccn(Cc3ccc(Cl)cc3)c2=O)cc1`: the “activity change, negative = inhibition” value is inactive: -14.6%.

With `CN(C)CCc1c[nH]c2cccc(OP(=O)(O)O)c12`, the “activity change, negative = inhibition” value was inactive: -11.4% [at 116 µM].

For the compound `Cc1cccc(NC(=O)Cn2cc(C(=O)c3ccccc3)c3ccccc32)c1`, the “activity change, negative = inhibition” value was inactive: -36.5%.

With `CC(=Cc1csc(C)n1)[C@@H]1C[C@H]2O[C@@H]2CCC[C@H](C)[C@@H](O)[C@@H](C)C(=O)C(C)(C)[C@@H](O)CC(=O)O1`, the “activity change, negative = inhibition” value is inactive: -10.1%.

For `O=C(COc1cccc(Cl)c1)N1CCN(CCc2ccncc2)CC1`, the “activity change, negative = inhibition” value was inactive: -9.42%.

With `O=S1(=O)N(Cc2ccccc2)CCCN1Cc1cccc(Cl)c1`, the “activity change, negative = inhibition” value was inactive: -21.4%.

Take `Cc1ccc(Cn2cccc(C(=O)Nc3cc([N+](=O)[O-])ccc3C)c2=O)cc1`: the “activity change, negative = inhibition” value was inactive: 21.1%.

Take `CC(C)NCC(O)c1ccc(N)c(C#N)c1` (configuration not stated): the “activity change, negative = inhibition” value is inactive: -1.75%.

`CNCC(O)c1ccc(O)cc1` (configuration not stated): the activity change, negative = inhibition entry is “inactive”.

Turning to `O=C(COc1ccccc1Cl)N1CCN(CCc2ccncc2)CC1`, the “activity change, negative = inhibition” value is inactive: -17.6%.

For `Cc1cccc(-n2c(/C=C/c3ccccc3O)nc3ccccc3c2=O)c1`, the “activity change, negative = inhibition” value is inactive: -9.47%.

In the case of `Cc1sc2c(c1C)C(c1ccc(Cl)cc1)=N[C@@H](CC(=O)Nc1ccc(O)cc1)c1nnc(C)n1-2`, the “activity change, negative = inhibition” value was inactive: 70.6%.

In the case of `CCOC(=O)c1ncn2c1CN(C)C(=O)c1c(I)cccc1-2`, the “activity change, negative = inhibition” value is inactive: -0.509%.

In the case of `O=C(O)Cc1ccccc1`, the “activity change, negative = inhibition” value is inactive: -4.03%.

Turning to `Clc1cccc(SC2CCNCC2)n1`, the “activity change, negative = inhibition” value is inactive: 3.19%.

For the compound `COc1ccc(C(=O)c2c(C)n(CCN3CCOCC3)c3ccccc23)cc1`, the activity change, negative = inhibition entry is “inactive”.

For `c1cc2c(c(N3CCNCC3)c1)OCCO2`, the “activity change, negative = inhibition” value was inactive: 7.86%.

For `NP(N)(=O)NC(=O)c1ccc(F)cc1`, the “activity change, negative = inhibition” value is inactive: -2.17%.

Regarding `COc1ccc(Cl)cc1NC(=O)CN1C(=O)CN=C(c2ccccc2)c2cc(Cl)ccc21`, the “activity change, negative = inhibition” value is inactive: -39.3%.

Regarding `CCCCC1C(=O)NC(=O)N(C2CCCCC2)C1=O` (configuration not stated), the “activity change, negative = inhibition” value is inactive: -5.73%.

As for `CC(C)(C)OC(=O)c1ncn2c1[C@@H]1CCCN1C(=O)c1c(Br)cccc1-2`, the “activity change, negative = inhibition” value was inactive: -12.6%.

With `CCN(CC)CCOC(=O)C(O)(c1ccccc1)c1ccccc1`, the “activity change, negative = inhibition” value was inactive: -5.98%.

For the compound `O=c1c2ccccc2nc(/C=C\c2ccccc2F)n1-c1ccc(O)cc1`, the “activity change, negative = inhibition” value is inactive: -35.8%.

As for `C[C@]12CC[C@H]3[C@@H](CCC4=CC(=O)CC[C@@]43C)[C@@H]1CC[C@@H]2C(=O)O`, the “activity change, negative = inhibition” value is inactive: 0.511%.

Consider `Cc1c(C(c2ccc(Cl)cc2Cl)c2c(O)c3ccccc3oc2=O)c(=O)n(-c2ccccc2)n1C` (configuration not stated), for which the “activity change, negative = inhibition” value was inactive: -27.2%.

For the compound `COc1ccc(C(CN(C)C)C2(O)CCCCC2)cc1` (configuration not stated), the activity change, negative = inhibition entry is “inactive”.

As to `COc1ccc(C(=O)Nc2ccc(Cl)cc2C(=O)c2ccccc2)c(OC)c1`, the “activity change, negative = inhibition” value was inactive: -24.7%.
